The source of these data is article PMC12671805.

Amino acid sequences for entries named in this document (tags omitted). Residues count along the entry.
UniProt Q01097, residues 27-1482: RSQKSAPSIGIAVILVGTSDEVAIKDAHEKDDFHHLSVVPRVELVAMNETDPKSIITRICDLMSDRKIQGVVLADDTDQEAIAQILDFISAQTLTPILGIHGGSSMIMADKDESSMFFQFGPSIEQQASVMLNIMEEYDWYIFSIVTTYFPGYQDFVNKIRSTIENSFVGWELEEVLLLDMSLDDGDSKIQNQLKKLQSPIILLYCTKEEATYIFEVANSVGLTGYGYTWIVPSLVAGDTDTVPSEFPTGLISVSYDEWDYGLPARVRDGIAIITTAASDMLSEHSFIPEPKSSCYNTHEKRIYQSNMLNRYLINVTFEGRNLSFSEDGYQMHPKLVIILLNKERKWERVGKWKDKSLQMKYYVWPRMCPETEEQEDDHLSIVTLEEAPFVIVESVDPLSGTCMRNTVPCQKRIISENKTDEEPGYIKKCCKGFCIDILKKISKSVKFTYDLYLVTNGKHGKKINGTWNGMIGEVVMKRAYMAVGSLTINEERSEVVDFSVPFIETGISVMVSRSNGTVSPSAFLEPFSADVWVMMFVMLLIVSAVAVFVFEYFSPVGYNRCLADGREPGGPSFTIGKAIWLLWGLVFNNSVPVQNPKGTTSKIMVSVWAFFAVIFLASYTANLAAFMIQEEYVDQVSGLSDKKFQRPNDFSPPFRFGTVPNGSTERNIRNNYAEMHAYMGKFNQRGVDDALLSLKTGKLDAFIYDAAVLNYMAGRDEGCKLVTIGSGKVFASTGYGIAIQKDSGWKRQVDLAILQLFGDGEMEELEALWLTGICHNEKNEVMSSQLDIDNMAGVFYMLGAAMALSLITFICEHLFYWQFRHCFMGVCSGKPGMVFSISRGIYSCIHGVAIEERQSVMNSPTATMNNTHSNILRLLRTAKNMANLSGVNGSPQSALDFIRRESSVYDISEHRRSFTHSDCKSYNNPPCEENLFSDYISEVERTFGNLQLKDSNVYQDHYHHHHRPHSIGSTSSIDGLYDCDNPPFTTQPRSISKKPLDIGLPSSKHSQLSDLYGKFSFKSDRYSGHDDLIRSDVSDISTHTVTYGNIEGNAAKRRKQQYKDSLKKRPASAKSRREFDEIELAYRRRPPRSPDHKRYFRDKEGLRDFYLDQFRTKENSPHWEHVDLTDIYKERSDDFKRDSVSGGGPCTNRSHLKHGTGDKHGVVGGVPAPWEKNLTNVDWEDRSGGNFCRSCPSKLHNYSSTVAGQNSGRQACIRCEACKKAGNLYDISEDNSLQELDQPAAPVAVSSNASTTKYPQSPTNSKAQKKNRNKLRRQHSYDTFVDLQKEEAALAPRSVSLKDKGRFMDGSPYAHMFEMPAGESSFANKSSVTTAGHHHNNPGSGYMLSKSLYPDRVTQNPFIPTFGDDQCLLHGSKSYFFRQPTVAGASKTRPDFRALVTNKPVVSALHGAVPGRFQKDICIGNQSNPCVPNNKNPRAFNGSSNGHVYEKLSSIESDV

The target of experiment [1] is T1, GST fusion protein of wild-type RIN1 (mouse) (UniProt Q921Q7).
T1 sequence: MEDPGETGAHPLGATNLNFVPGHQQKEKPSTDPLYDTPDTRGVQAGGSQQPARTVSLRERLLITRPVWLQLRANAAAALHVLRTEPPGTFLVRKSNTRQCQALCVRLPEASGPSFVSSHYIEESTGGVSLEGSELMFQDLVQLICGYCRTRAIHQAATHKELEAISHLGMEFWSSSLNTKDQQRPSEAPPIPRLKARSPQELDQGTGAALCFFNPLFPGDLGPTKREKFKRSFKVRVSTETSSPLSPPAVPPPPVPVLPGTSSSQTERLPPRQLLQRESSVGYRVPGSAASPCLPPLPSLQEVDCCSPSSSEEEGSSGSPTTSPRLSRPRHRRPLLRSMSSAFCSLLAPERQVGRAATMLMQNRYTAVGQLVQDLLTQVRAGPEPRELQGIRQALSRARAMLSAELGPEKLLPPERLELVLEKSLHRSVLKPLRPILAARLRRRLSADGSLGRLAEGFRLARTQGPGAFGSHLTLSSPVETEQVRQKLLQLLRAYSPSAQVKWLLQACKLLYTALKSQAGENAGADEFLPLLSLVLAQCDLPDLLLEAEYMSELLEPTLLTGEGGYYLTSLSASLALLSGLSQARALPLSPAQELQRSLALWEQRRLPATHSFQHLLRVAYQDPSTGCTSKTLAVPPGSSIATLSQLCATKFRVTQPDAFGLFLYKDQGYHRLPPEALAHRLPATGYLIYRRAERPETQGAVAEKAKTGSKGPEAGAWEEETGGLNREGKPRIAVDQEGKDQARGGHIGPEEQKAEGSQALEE
The experiment in a line: pull-down; GST fusion proteins bound to glutathione agarose beads, incubated with spinal cord lysate supernatant in RIPA buffer for 4 h at 4°C; immunoblot; only the target purified. In general terms: Immunoblotting shows a protein as a band on a membrane.

For experiment [2], the target named is T2, GST-RIN1(1-221), a GST-fused N-terminal region encompassing the SH2 domain (mouse) (UniProt Q921Q7).
T2 sequence: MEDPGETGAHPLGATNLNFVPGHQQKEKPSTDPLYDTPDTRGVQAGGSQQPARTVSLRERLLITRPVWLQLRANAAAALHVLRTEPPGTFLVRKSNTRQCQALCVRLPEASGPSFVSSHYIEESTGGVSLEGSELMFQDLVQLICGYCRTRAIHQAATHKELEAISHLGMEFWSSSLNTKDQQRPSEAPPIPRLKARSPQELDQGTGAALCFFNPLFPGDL
The experiment is described as above.

Experiment [3] has as its target T3, Ras and Rab interactor 1 (RIN1), endogenous (mouse (endogenous in spinal cord dorsal horn)) (UniProt Q921Q7).
T3 sequence: T1 sequence
The experiment in a line: co-IP; anti-RIN1 antibody with lysates of mouse spinal cord dorsal horn in RIPA buffer, overnight at 4°C; Protein A/G-Agarose beads; immunoblot.

The target in experiment [4] is T3, Ras and Rab interactor 1 (RIN1), endogenous (mouse (endogenous in spinal cord dorsal horn)). The experiment is described as follows: proximity ligation; Duolink in situ fluorescence PLA on mouse spinal sections with EGFP-labelled SOM+ interneurons; mouse anti-RIN1 with rabbit anti-GluN2A or rabbit anti-GluN2B antibody.

Results are given in words; binding and its absence hold for the method and conditions named. Binding seen in cells or lysates may run through a third protein. Some binding calls cover weakened binding; strength is not graded here. For part of these data: Tags and fused reporters may be left off the sequences shown.

Take “GluN2A subunit of NMDA receptors, endogenous (from UniProt P35436 23-1464)”: the binding entry in experiment [1], in experiment [2], in experiment [3] and in experiment [4] was “binds” each time.
On to “GluN2B subunit of NMDA receptors, endogenous (from UniProt Q01097 27-1482)”, for which the binding result in experiment [3] and in experiment [4] was “no binding” in each case.
